# Source: the supplement of paper PMC3334620
# Over roughly 33,000 sequences, “E-score (-0.5 to 0.5)” has its median near -0.054; the highest 2% begin near 0.35. Some of the results follow.
# Biological target: T1, Stb5 (UniProt P38699)
# T1 sequence: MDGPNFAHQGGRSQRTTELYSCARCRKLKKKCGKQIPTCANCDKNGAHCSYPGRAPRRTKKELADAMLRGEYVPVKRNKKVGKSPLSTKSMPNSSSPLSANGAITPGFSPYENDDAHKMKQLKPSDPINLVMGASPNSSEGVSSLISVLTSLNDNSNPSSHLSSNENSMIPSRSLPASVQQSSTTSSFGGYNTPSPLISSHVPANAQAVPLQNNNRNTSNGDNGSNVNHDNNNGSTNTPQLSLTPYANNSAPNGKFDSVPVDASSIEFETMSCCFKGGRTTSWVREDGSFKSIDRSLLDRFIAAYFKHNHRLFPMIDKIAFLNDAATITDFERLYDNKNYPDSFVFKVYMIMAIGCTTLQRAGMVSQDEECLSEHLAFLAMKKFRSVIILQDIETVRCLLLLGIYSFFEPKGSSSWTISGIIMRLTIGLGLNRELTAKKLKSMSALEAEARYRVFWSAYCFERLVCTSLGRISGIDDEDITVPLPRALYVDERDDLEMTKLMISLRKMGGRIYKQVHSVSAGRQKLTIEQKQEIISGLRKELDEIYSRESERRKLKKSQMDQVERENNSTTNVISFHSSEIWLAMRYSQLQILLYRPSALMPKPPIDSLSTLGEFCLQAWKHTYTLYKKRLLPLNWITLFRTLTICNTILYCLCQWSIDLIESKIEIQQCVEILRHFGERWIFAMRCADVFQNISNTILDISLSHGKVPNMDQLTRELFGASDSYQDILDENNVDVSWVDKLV
# Test: PBM E-score (8-mer binding enrichment) (E-score (-0.5 to 0.5)); higher = stronger / more preferred TF binding; most listed sequences are background and not binding sites
# Details: protein concentration: 200 nM; construct: GST-full length
# Experimental: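 Universal 'all 10-mer' protein binding microarrays (Agilent AMADID 015681) probed with GST-tagged S. cerevisiae TFs (full-length or DBD) made by in vitro transcription/translation (PURExpress), about 100-200 nM. Bound TF was detected with fluorescent anti-GST. Each ungapped 8-mer (which stands for itself and its reverse complement) is scored by the PBM enrichment score (E-score), a modified Wilcoxon-Mann-Whitney statistic from -0.5 to +0.5, computed with the Universal PBM Analysis Suite. Scale: above 0.35 generally sequence-specific binding.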
row,Sequence,PBM E-score
1,AACACGGG,0.0484
2,GTGGTCGA,-0.254
3,GGCGGCTA,0.12
4,CCTCGCCA,-0.191
5,AGATCCTA,-0.266
6,AGACGCAC,0.0631
7,CCACGTGG,-0.282
8,CACCTTGA,0.0193
9,ACCCACGC,-0.155
10,TTCGAGAA,-0.055
11,CCACGTGC,-0.0774
12,GACTGGCC,-0.0285
13,GCATCAAA,-0.0923
14,AAGACTAC,-0.0698
15,CCCACTAC,-0.219
16,ATAGACTA,-0.232
17,ATCCAAGC,-0.165
18,CATCTACA,-0.188
19,AAGCAAGT,-0.123
20,CGAATGCC,0.0928
21,CCTCATCG,0.00811
22,GAGGTAGA,-0.0408
23,CTTTAGTC,0.107
24,ATGCCGCG,0.319
25,CTAGACTA,-0.136

row,Sequence,PBM E-score
1,CTTAAACA,0.161
2,CTAGGGGC,-0.243
3,GCCAGTAC,-0.0327
4,GACTGGAC,-0.142
5,ATCGAGGG,-0.142
6,ACTACTGG,-0.296
7,CGCAACCC,-0.11
8,CTGTCAGC,-0.0676
9,GTGGAAAC,-0.00304
10,CATAAACA,0.0561
11,ACAGGTCT,-0.254
12,CTAGGTTA,0.0388
13,GAGTACAC,-0.136
14,CGTTTAGC,0.244
15,AAATTGAG,-0.206
16,ATTAGCGG,0.24
17,ATAACCGC,0.323
18,ATCAGGCG,-0.104
19,AACCCTTG,-0.0666
20,AATGCACA,-0.0352
21,AGCTAATA,-0.149
22,CATCGGAA,0.145
23,GGATCACC,0.125
24,CTTAATTC,-0.0333
25,GACAGCGA,0.241

row,Sequence,PBM E-score
1,ACCTATTG,-0.141
2,GGAATCCC,0.0392
3,ATCACCCA,-0.146
4,GGTTATTA,0.163
5,GTACGACA,-0.115
6,AGCACCCG,0.153
7,GCGGCTCC,0.0658
8,ACGAATAT,-0.0846
9,CGCTTAGC,0.0735
10,CCGTGGCA,0.0411
11,AGCTCTAT,-0.111
12,AGGTAAAC,0.133
13,GAATCCAC,-0.133
14,CATATCCG,0.15
15,CGTGCAAG,0.0388
16,CAACGTGC,-0.0319
17,ATATAGCG,0.131
18,AGCACCAT,-0.0231
19,CTCCGTCC,0.322
20,AAAAGCAT,-0.0942
21,AATTCCGC,0.262
22,GTGCGGAA,0.017
23,GATTCAAC,-0.0115
24,ATGACCAC,-0.215
25,GGACCATA,0.0335

row,Sequence,PBM E-score
1,CAGTCTGC,-0.146
2,AGGGACAC,-0.174
3,GGGGCTTA,0.271
4,ACTTCACG,-0.161
5,AGCGACGC,-0.0666
6,ACGATAGC,0.0317
7,ACTTTAGA,-0.109
8,ACGCATTC,-0.0675
9,CACAGATA,-0.271
10,CGTTGATC,-0.0579
11,AAAGATGT,-0.0992
12,CCTAGCCC,-0.0748
13,GAGGAGCC,-0.161
14,CACAGGCA,-0.251
15,AACGGAGA,0.247
16,ATATCGCG,0.0512
17,ACTCCAGG,0.0251
18,GCTAGTAA,-0.0348
19,AGTGTATA,-0.177
20,CAATCTAA,0.00448
21,GAGTTCGC,0.0473
22,AGCGAGCT,-0.079
23,CGCGTGAG,-0.025
24,AGGTTCAC,-0.164
25,GACCGGTA,0.231

row,Sequence,PBM E-score
1,AAACTACT,-0.106
2,AACGGCTC,0.0467
3,AGCTGTCA,-0.27
4,CTCCACTC,-0.151
5,CGCCTTAG,0.165
6,AACGCCCA,-0.0339
7,CACAGGGA,0.0345
8,CGTTCGGA,0.243
9,CAGAAACC,-0.15
10,GGCAGTCA,-0.11
11,CAAGGCTG,-0.26
12,CGTGCGTC,0.171
13,CATTCACC,0.17
14,CGGCCGGC,0.284
15,GGTAACTA,0.293
16,AACGTACA,-0.109
17,CCTAAAAG,-0.127
18,CAGGAAAG,-0.165
19,ACGCGTGA,-0.138
20,ACTGTGGC,-0.254
21,CAAAAGCG,0.195
22,ACAAAACT,-0.0319
23,GGAATTCA,-0.0427
24,CACGGGGG,0.117
25,TGACCTCA,-0.0882

row,Sequence,PBM E-score
1,CAATGCTG,-0.125
2,GGAGTACA,0.0255
3,CTTGGCAA,-0.319
4,CAGATCTG,-0.333
5,AATTAAGT,0.0344
6,AATTCAGA,-0.0824
7,CGACAAAC,0.052
8,ACTGGAGC,0.00185
9,CGTCGTAC,0.0941
10,GGCACGAA,0.0383
11,CTGATCAA,-0.0915
12,CATCGGAG,0.237
13,CCAGCAGA,-0.203
14,CTGCAAGC,-0.173
15,GAATAGAC,-0.114
16,GTTGATCA,-0.14
17,CCAAAAGG,-0.31
18,CCTCAATC,-0.0673
19,ACATAATA,0.0339
20,GTGGGTGA,-0.0527
21,GAAACCGA,0.149
22,ACTGATGA,-0.191
23,AATCTAGG,-0.16
24,AGCGTGTA,-0.0367
25,ACAGTGTG,-0.278

row,Sequence,PBM E-score
1,AAGGAGCT,-0.0779
2,CTACATGC,-0.179
3,GTCGTATA,-0.0424
4,CCAGACGA,-0.199
5,ATCTGGCA,-0.09
6,ACGGCAAG,-0.121
7,ACTTGGAA,-0.158
8,AATGCCAC,-0.0701
9,GCAAAGAC,-0.0627
10,AAACTTCG,0.00189
11,AACAGACG,0.0239
12,ACATCGGC,0.266
13,GCATTCAC,0.17
14,ACAATAGT,0.0234
15,AAGAATAA,0.0987
16,GGGACATA,0.132
17,CCTTGTCG,-0.131
18,ATCTCATG,-0.131
19,AGGGCTCC,-0.087
20,AACTCAAG,-0.241
21,CGAAAGCG,0.0309
22,GCGACCCC,0.111
23,ACTTGGCG,-0.14
24,AGTTGGTA,-0.095
25,AAGAATAG,-0.0458

row,Sequence,PBM E-score
1,AATGGAAC,-0.102
2,ACCAGAGC,-0.135
3,GACAGGCC,-0.126
4,CGAAAGGC,0.263
5,GCGGCAGA,0.135
6,AGTTTGCC,-0.0358
7,AAAATTGA,-0.0781
8,CTACTGTA,-0.0223
9,TGGTCTAA,-0.13
10,CCCTACCA,-0.00019
11,CGCCGGTC,0.346
12,CCGAGCCC,0.00911
13,ATAGTTAA,-0.0344
14,GAAAGGAC,0.0991
15,GTTGAGCA,-0.0536
16,GACAGCTC,-0.229
17,GATTGTGA,-0.0335
18,TACTCTCA,-0.276
19,CGAAGCGC,0.161
20,CGTTTAAC,0.0256
21,ACTAAACT,-0.102
22,AATTGGCT,-0.076
23,ATGACAAA,-0.305
24,CGAGCTAG,-0.112
25,AAGCCACC,-0.0661

row,Sequence,PBM E-score
1,CCTGAGAG,-0.241
2,ACCCGTTC,0.196
3,AACCGCAT,0.0436
4,ATCGCGAC,-0.0417
5,AGTTCGCA,-0.0245
6,CCCAACGG,0.321
7,AGAGGACA,-0.204
8,ATCTAACC,-0.0185
9,CGAAGGCG,0.0834
10,GTGTCATA,0.0744
11,CCCCGGAG,0.343
12,GTCACAAA,0.00191
13,AATTCTCT,-0.088
14,CAGTTTGA,0.0383
15,ACACCTGT,0.0542
16,GCCGCTCC,0.341
17,AAGGCGCT,0.109
18,CGCTGCAA,-0.0161
19,TATAAACA,-0.0188
